# Source: the supplement of paper PMC7826260
# This is one part of the list. Cleavage of a single-stranded DNA pool by Rep nickase domains was read by sequencing (1 h at 37 °C, 3 µM enzyme); the outer parts of the 90-letter strands are left off. Uncut reads are compared with the no-enzyme pool on a log2 scale; strong cutting gives strongly negative numbers. There is no active / inactive call. Reads are scaled to the total, so uncut sequences can rise above 0 when many others are cut.
# Columns and labels:
# Test in all cases: uncleaved DNA left, log2 of reads against the no-enzyme library (log2 ratio); higher = less cleavage (more negative = more Rep cleavage of the k-mer); sequences stand for … in CTCGTCCG…ACCGGAGA
# [1] = system: T1, Rep nickase domain of Muscovy duck circovirus
# T1 sequence (protein, residues 1-111, tag omitted): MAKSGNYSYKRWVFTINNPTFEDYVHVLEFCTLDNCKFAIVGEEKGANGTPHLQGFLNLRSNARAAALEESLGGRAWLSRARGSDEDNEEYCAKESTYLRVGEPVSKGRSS
# Procedure: (§1)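 A pool of 90-nt single-stranded DNAs with seven random bases just before the constant AC of the nick site (name = the seven bases) was cut by 3 µM recombinant His6-SUMO-tagged Rep nickase domain (300 nM DNA, 50 mM HEPES pH 8.0, 50 mM NaCl, 1 mM MnCl2, 1 h, 37 °C, three replicates). Uncut DNA was amplified and sequenced.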
# [2] = system: T2, Rep nickase domain of banana bunchy top virus
# T2 sequence (protein, residues 1-94, tag omitted): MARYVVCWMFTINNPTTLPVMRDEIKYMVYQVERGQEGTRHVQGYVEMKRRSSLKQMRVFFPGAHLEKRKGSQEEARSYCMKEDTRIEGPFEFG
# Procedure: as §1
# [3] = system: T3, Rep nickase domain of cabbage leaf curl virus
# T3 sequence (protein, residues 1-116, tag omitted): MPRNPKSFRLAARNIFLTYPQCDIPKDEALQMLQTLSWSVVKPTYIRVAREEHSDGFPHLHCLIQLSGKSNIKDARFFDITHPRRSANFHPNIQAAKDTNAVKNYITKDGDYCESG
# Procedure: as §1
# [4] = system: T4, Rep nickase domain of chickpea chlorotic dwarf virus
# T4 sequence (protein, residues 1-124, tag omitted): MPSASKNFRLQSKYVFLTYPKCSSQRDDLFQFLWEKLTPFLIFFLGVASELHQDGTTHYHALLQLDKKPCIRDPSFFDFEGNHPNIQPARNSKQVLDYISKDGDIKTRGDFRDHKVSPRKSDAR
# Procedure: as §1
# [5] = system: T5, Rep nickase domain of faba bean necrotic yellows virus
# T5 sequence (protein, residues 1-98, tag omitted): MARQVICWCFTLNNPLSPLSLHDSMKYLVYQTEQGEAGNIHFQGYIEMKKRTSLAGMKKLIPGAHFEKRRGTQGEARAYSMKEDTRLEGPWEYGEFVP
# Procedure: as §1
# [6] = system: T6, Rep nickase domain of maize striate mosaic virus
# T6 sequence (protein, residues 1-117, tag omitted): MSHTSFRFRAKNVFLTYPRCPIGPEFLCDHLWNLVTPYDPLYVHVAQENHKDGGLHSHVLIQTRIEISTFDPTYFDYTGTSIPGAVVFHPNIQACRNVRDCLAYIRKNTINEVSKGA
# Procedure: as §1
# [7] = system: T7, Rep nickase domain of porcine circovirus 2
# T7 sequence (protein, residues 2-116, tag omitted): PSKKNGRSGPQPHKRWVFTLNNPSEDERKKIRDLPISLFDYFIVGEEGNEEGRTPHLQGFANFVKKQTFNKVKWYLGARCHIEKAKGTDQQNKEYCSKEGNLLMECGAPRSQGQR
# Procedure: as §1
# [8] = system: T8, Rep nickase domain of tomato yellow leaf curl virus
# T8 sequence (protein, residues 1-136, tag omitted): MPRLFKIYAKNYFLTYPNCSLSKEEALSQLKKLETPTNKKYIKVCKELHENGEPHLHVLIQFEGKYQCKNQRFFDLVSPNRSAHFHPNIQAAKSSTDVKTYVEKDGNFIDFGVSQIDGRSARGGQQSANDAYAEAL
# Procedure: as §1
# [9] = system: T9, Rep nickase domain of wheat dwarf virus
# T9 sequence (protein, residues 1-137, tag omitted): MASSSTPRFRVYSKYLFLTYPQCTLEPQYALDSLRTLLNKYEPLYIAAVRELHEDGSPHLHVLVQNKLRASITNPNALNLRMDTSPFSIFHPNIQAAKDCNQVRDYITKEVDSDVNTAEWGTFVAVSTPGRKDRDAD
# Procedure: as §1
Sequence,uncleaved DNA left (log2) [1],uncleaved DNA left (log2) [2],uncleaved DNA left (log2) [3],uncleaved DNA left (log2) [4],uncleaved DNA left (log2) [5],uncleaved DNA left (log2) [6],uncleaved DNA left (log2) [7],uncleaved DNA left (log2) [8],uncleaved DNA left (log2) [9]
GAATCAG,0.0202,-0.00735,-0.521,-0.444,0.11,-1.04,0.151,0.0196,-0.0702
CACAGCG,-0.11,-0.0388,-0.791,0.215,0.0468,-0.698,0.0367,0.00609,-0.115
AATTGGT,-3.12,-1.36,-0.0537,0.231,-0.0212,0.345,-3.46,-0.094,0.086
CGATCAG,-0.0274,0.0217,-0.33,0.0243,-0.154,-0.477,0.0573,-0.0584,0.0109
ATGGACC,0.00841,-0.0445,0.134,0.747,-0.101,0.664,0.0128,0.00102,0.0207
GGATAAG,0.116,0.113,-0.127,0.215,0.0152,-0.302,0.265,0.0858,0.114
ACCAACC,-0.154,0.0208,-0.109,-1.5,0.041,-0.582,-0.235,-0.0365,0.0338
AGATTCG,0.125,0.0714,-0.798,0.243,0.134,-0.941,0.251,0.207,0.0828
GGGTGAC,0.092,0.214,0.821,1.95,0.13,2.28,0.26,0.112,0.227
CCCGTAC,0.0505,-0.0223,0.0584,-0.556,0.0669,-0.559,0.123,0.023,-0.153
GTATCCG,0.00474,-0.0741,-0.564,-0.679,-0.00668,-0.909,0.141,-0.089,-0.059
ATAGTGC,-0.0474,0.0219,-0.673,-0.63,-0.00361,-1.36,0.124,0.0272,-0.0393
TGTAAGC,-0.147,-0.0284,0.0107,-0.0513,-0.0741,-0.527,-0.0103,-0.0758,-0.0649
ATTTTAG,0.00464,0.0309,-0.87,-0.457,0.0142,-1.39,0.161,-0.0818,-0.116
